The values that follow come from PMC5892938.

Some of the results follow. The exact form of the protein is not confirmed.

The target in the assay is GST-SBP-ILF3 (Homo sapiens) (UniProt Q12906). Kind of assay: targeted RNA Bind-n-Seq. To be noted: RBNS binding buffer: 25 mM Tris pH 7.5, 150 mM KCl, 3 mM MgCl2, 0.1% Tween, 0.5 mg/mL BSA, 1 mM DTT; 27 nM protein, 750 pM RNA pool; temperature not stated; high values mean tight binding; sequences stand for … in GGGUAAAAGCGAGGUGAA…CGGGACAAGUAUUAUGGG
Regarding “UUUUUUUUUUGAGACUGAACCAGUCUCCUA [tttttgagapaired]”, the binding signal (log2 fold change) was determined as 0.000607.

Take “GUGUGGUGUGUUGGAGUCUAACACAUCGCA [gtspaired]”: the binding signal (log2 fold change) was -0.771.

As to “UUUUUUUUUUGAGAGGGCAUCCCUCUCCUA [tttttgagapaired]”, the binding signal (log2 fold change) was 0.605.

For “UUUUUUUUUUGAGAACGUGGCGUUCUCCAG [tttttgagapaired]”, the binding signal (log2 fold change) amounted to 0.522.

Take “UUUUUUUUUUGAGAGCGUGACGUUCUCCUA [tttttgagapaired]”: the binding signal (log2 fold change) was determined as 0.453.

Regarding “UUUUUUUUUUGAGACCGAGACGGUUUCCAG [tttttgagapaired]”, the binding signal (log2 fold change) was determined as 0.527.

“UUUUUUUUUUGAGAGGGCGACCCUCUUCUG [tttttgagapaired]”: the binding signal (log2 fold change) stood at 0.572.

Take “UUCUCUUCUCCUCCGCUGGAGGGGGAGAGA [ctspaired]”: the binding signal (log2 fold change) is -0.54.

With “GUGUGUGGUGUUGGAACCUAACACCGCAUA [gtspaired]”, the binding signal (log2 fold change) is -0.386.

For the sequence “UUUUUUUUUUGAGAUGGUUGCCAUCUCCUG [tttttgagapaired]”, the binding signal (log2 fold change) came to 0.469.

Consider “GUGUGUUGUGUUGGCGUCUAACACAACGCG [gtspaired]”, for which the binding signal (log2 fold change) was -0.469.

On to “GGUUGGUGUGUUGGAGCCUAACACACUAAC [gtspaired]”, for which the binding signal (log2 fold change) was -0.122.

As to “UUUUUUUUUUGAGAGGGAACCCCUCUCCUG [tttttgagapaired]”, the binding signal (log2 fold change) is -0.0733.

As for “UUUUUUUUUUGAGACUGAAACAGUCUUCUA [tttttgagapaired]”, the binding signal (log2 fold change) was -0.491.

With “GGUUGGUGUGUUGGCCUCUAACACACCGAC [gtspaired]”, the binding signal (log2 fold change) was -0.49.

As to “GUGUGUUGUGUUGGUACCUAACACAACGCA [gtspaired]”, the binding signal (log2 fold change) is -0.39.

In the case of “UUUUUUUUUUGAGAUCGUCACGAUCUCCGG [tttttgagapaired]”, the binding signal (log2 fold change) amounted to 0.281.

Take “GGUUGUGGUGUUGGCCUCUAACACCACGAC [gtspaired]”: the binding signal (log2 fold change) was -0.749.

For the sequence “UUUUUUUUUUGAGACUGACACAGUCUCCUA [tttttgagapaired]”, the binding signal (log2 fold change) was determined as 0.234.

Take “UUUUUUUUUUGAGACCGUAUCGGUCUCCUA [tttttgagapaired]”: the binding signal (log2 fold change) was determined as 0.634.

Turning to “UUCUCUUCUCCUCCAGGGGAGGGGAAGGGA [ctspaired]”, the binding signal (log2 fold change) is -0.284.

Regarding “GUUGUGUGUGUUGGCCCCUAACACACGCAA [gtspaired]”, the binding signal (log2 fold change) was -0.581.

On to “UUUUUUUUUUGAGAUGGCUGCCAUCUCCGG [tttttgagapaired]”, for which the binding signal (log2 fold change) was 0.62.

“UUUUUUUUUUGAGAUGGGCACUAUCUCCAG [tttttgagapaired]”: the binding signal (log2 fold change) turned out to be 0.545.

Turning to “UUUUUUUUUUGAGAUGGAAUCCAUCUCCUA [tttttgagapaired]”, the binding signal (log2 fold change) is -0.337.

For the sequence “UUUUUUUUUUGAGAUGGGUACUAUCUUCUA [tttttgagapaired]”, the binding signal (log2 fold change) was 0.186.

As to “UUUUUUUUUUGAGAUGGAUUCCAUCUUCUA [tttttgagapaired]”, the binding signal (log2 fold change) was -0.226.

“GUUGUGUGUGUUGGCAUCUAACACACACAG [gtspaired]”: the binding signal (log2 fold change) was -0.38.

For “UUUUUUUUUUGAGACGGGCCCCGUCUCCAG [tttttgagapaired]”, the binding signal (log2 fold change) was 0.67.

Turning to “GUGGUGUGUGUUGGUCCCUAACACACACCG [gtspaired]”, the binding signal (log2 fold change) is -0.21.

With “UUUUUUUUUUGAGACUGCUUCAGUCUCCAG [tttttgagapaired]”, the binding signal (log2 fold change) amounted to 0.345.

For the sequence “UUUUUUUUUUGAGACGGAAACCGUCUCCAG [tttttgagapaired]”, the binding signal (log2 fold change) stood at 0.212.

In the case of “UUUUUUUUUUGAGACUGAGCCAGUCUCCUG [tttttgagapaired]”, the binding signal (log2 fold change) worked out at 0.316.

In the case of “UUUUUUUUUUGAGACGGAAUCCGUCUCCAG [tttttgagapaired]”, the binding signal (log2 fold change) was 0.13.

Take “UUUUUUUUUUGAGACGGGACCCGUCUCCUA [tttttgagapaired]”: the binding signal (log2 fold change) turned out to be 0.542.

As to “GUGUUGUGUGUUGGCUCCUAACACACAGCA [gtspaired]”, the binding signal (log2 fold change) is -0.26.

Consider “UUUUUUUUUUGAGACUGAUACAGUCUCCGG [tttttgagapaired]”, for which the binding signal (log2 fold change) worked out at 0.322.

Consider “UUUUUUUUUUGAGACUGGCGCAGUCUCCGG [tttttgagapaired]”, for which the binding signal (log2 fold change) came out at 0.585.

In the case of “UUCUCUUCUCCUCCGCGGGAGGGGGAGAGA [ctspaired]”, the binding signal (log2 fold change) is -0.653.

For the sequence “UUUUUUUUUUGAGACGGGAUCUGUCUUCUG [tttttgagapaired]”, the binding signal (log2 fold change) stood at 0.575.

For “GUGUGUUGUGUUGGAACCUAACACAGCGCG [gtspaired]”, the binding signal (log2 fold change) is -0.805.

For “UUUUUUUUUUGAGACUGAAUCAGUUUCCUA [tttttgagapaired]”, the binding signal (log2 fold change) is 0.265.

In the case of “UUUUUUUUUUGAGAUGGCAGCCAUCUCCUA [tttttgagapaired]”, the binding signal (log2 fold change) stood at 0.472.

“GUGUGUUGUGUUGGCGCCUAACACAGCGCG [gtspaired]”: the binding signal (log2 fold change) was -0.391.

For the sequence “UUUUUUUUUUGAGAGGGGCUCCCUUUCCGG [tttttgagapaired]”, the binding signal (log2 fold change) stood at 0.584.

For “UUUUUUUUUUGAGACUGAGGCAGUCUCCUA [tttttgagapaired]”, the binding signal (log2 fold change) stood at 0.333.

As to “UUUUUUUUUUGAGAUCGGAACGAUUUCCUA [tttttgagapaired]”, the binding signal (log2 fold change) stood at 0.00384.

“UUUUUUUUUUGAGAUGGAGGCCAUCUCCAG [tttttgagapaired]”: the binding signal (log2 fold change) was determined as 0.444.

On to “GGUUGGUGUGUUGGCGUCUAACACACCAGC [gtspaired]”, for which the binding signal (log2 fold change) was -0.734.

In the case of “UUUUUUUUUUGAGAGCGGGCCGUUCUCCGG [tttttgagapaired]”, the binding signal (log2 fold change) turned out to be 0.618.

Regarding “UUUUUUUUUUGAGAGGGGUACCCUCUUCUA [tttttgagapaired]”, the binding signal (log2 fold change) came out at 0.599.

For “GGUGUUGGUGUUGGAUCCUAACACCGAUAC [gtspaired]”, the binding signal (log2 fold change) was -0.336.

For “UUUUUUUUUUGAGACUGGGACAGUUUCCUG [tttttgagapaired]”, the binding signal (log2 fold change) came out at 0.925.

For the sequence “UUUUUUUUUUGAGAACGAUUCGUUCUCCAG [tttttgagapaired]”, the binding signal (log2 fold change) is -0.34.

As to “UUUUUUUUUUGAGACUGUGUCAGUCUUCUA [tttttgagapaired]”, the binding signal (log2 fold change) worked out at 0.572.

As for “GUGUUGUGUGUUGGUUCCUAACACACAGCG [gtspaired]”, the binding signal (log2 fold change) is -0.559.

On to “GGUUGUGGUGUUGGUUCCUAACACCGCGAC [gtspaired]”, for which the binding signal (log2 fold change) was -0.709.

Take “GUGUGUUGUGUUGGAACCUAACACAGCGCA [gtspaired]”: the binding signal (log2 fold change) was -0.546.

Turning to “UUUUUUUUUUGAGAUGGGAGCCAUCUCCAG [tttttgagapaired]”, the binding signal (log2 fold change) amounted to 0.32.

As for “UUUUUUUUUUGAGAGGGGAUCCCUUUCCAG [tttttgagapaired]”, the binding signal (log2 fold change) was determined as 0.295.

“UUUUUUUUUUGAGACCGGAUCGGUCUCCGG [tttttgagapaired]”: the binding signal (log2 fold change) is 0.307.

With “GGUGGUUGUGUUGGUGCCUAACACAAUCGC [gtspaired]”, the binding signal (log2 fold change) is -0.362.

With “UUUUUUUUUUGAGACCGCAUCGGUCUUCUG [tttttgagapaired]”, the binding signal (log2 fold change) came to 0.485.

For the sequence “UUUUUUUUUUGAGACUGGGACAGUUUCCUA [tttttgagapaired]”, the binding signal (log2 fold change) turned out to be 0.625.

As to “UUUUUUUUUUGAGAACGACGCGUUCUCCUA [tttttgagapaired]”, the binding signal (log2 fold change) was determined as 0.139.
